Reference: the supplement of paper PMC11417369
± gives the standard deviation of the averaged measurements. The list shows a part of the results.

System: PfAP2-EXP AP2 domain (GST-tagged)
Test: gcPBM binding intensity (ln(normalized median fluorescence intensity)); higher = stronger DNA binding
Procedure, shortened: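 For binding intensity, the highest Masliner-normalised natural-log median intensity across replicate spots of either probe orientation was taken. Protein bound to the array was stained with Alexa488 anti-GST antibody and scanned at 488 nm. The protein, GST-tagged P. falciparum DNA-binding domains from E. coli at about 25 μg on average, had been applied for 1 h to an Agilent 4 × 180k array of primer-extended double-stranded 36-bp intergenic genomic probes and negative controls.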

Row | Sequence | gcPBM binding intensity (ln)
1 | TAATATTTCTTATTTTATATTTGTATATGAATGGAT [XGTACX_negctrl_site278] | 8.43 ± 0.56
2 | TGGTGATCAAAATATACATGCATATGTTCTGTTATT [TGCATGCA_site614] | 8.75 ± 0.27
3 | GCTCAATGTTTTACATGTACATATATATATATATAT [XGTACX_site8210] | 10.2 ± 0.33
4 | TATATATTAGAAGATAGTACATATATATTTATTAAT [XGTACX_site1011] | 8.53 ± 0.24
5 | TATGATATCTATAATACACACATATACATAAGATCT [CACACA_site6652] | 8.45 ± 0.38
6 | TTATATAAAACATTAACACACAAAGAAAAAAAATTA [CACACA_site1793] | 8.57 ± 0.47
7 | TTAATATAACTTTTTGCACACTTAATTTTTTTTTTT [CACACA_site3364] | 8.74 ± 0.33
8 | AAAACAAATGCTTAAAGTACTTATTATTTTTCTTTT [XGTACX_site6324] | 8.95 ± 0.45
9 | TTCCTACTATTCAAACGTACAAAATATTTAAATAAT [XGTACX_site700] | 8.64 ± 0.38
10 | TATTATAAAACATTATGTACATATTCTGAAAAATAG [XGTACX_site6577] | 8.46 ± 0.32
11 | CAAAATAAAAAATTCACACACATATATATATATATA [CACACA_site2088] | 10.2 ± 0.38
12 | TATTTCTTATTTATTTTTTAAGGAAATTAAAGATTT [CACACA_negctrl_site258] | 7.97 ± 0.47
13 | CAAGTTCAAAATACAAGGAAGAAACAAAACTTGGCG [GTGCAC_negctrl_site600] | 9.12 ± 0.64
14 | ATAATATAATATAAAACACACATATGTACCTTCTAA [CACACA_site2761] | 8.49 ± 0.28
15 | TAAAAATATCTGTATACACACATATATATATATATA [CACACA_site6042] | 10.2 ± 0.42
16 | AAAAAAAAAAAAAAAAGTACAAATCTTTATTTATTA [XGTACX_site3305] | 8.32 ± 0.014
17 | TATATATTTTTTTCAAGTACACATTACAGTTACATA [XGTACX_site2713] | 8.62 ± 0.38
18 | ATTCGATGTTTTAAATGTACACAAATTGAAGGAATA [XGTACX_site409] | 8.86 ± 0.31
19 | ATGTTTTCTCTTTCGGTGCATTGTTTTCTATACTTT [GTGCAC_site9483] | 9.16 ± 0.49
20 | TTTATATAATTTTAATGTACATATATATATATAAAT [XGTACX_site4381] | 8.43 ± 0.35
21 | TTTTCTTACATGAGTGTACACACTTTTTTTCAGAAA [CACACA_site70] | 8.84 ± 0.28
22 | TTATTTGAATAATGTTTGCACTTAGAGTATTTTATA | 8.33 ± 0.37

Row | Sequence | gcPBM binding intensity (ln)
23 | ATATATCATAAATAAATGAAAATATTTTCTATGTGT [CACACA_negctrl_site689] | 8.63 ± 0.42
24 | TATCTATAATATTATACACACATATATGCATAATAT [CACACA_site6175] | 8.74 ± 0.47
25 | TTCTTCACATACACTTCAAAATTTGATAAAACATTA [CACACA_negctrl_site472] | 8.95 ± 0.42
26 | TAATAAATAAGATTCACACATATTTAAATGTTATGC [CACACA_site5275] | 8.21 ± 0.33
27 | GTATATAATTTTTTTTTTTTTTTCATTCTTTTCCTT [CACACA_negctrl_site1780] | 8.56 ± 0.42
28 | AAATATATGAAATATACACACTTCTTTGGTATTATT [CACACA_site4414] | 8.38 ± 0.35
29 | ATGAATTGACCATATTGTACATATTTAGGACTTACC [XGTACX_site8072] | 8.86 ± 0.42
30 | TATATATTAAAACACACACACATATATATATATATA [CACACA_site3787] | 10 ± 0.38
31 | AGAATATTTATATGATGTACTTATATATATATATAT [XGTACX_site3021] | 9.97 ± 0.47
32 | CAGAAATATTAATGCTGTACGGAATACATATATTTT [XGTACX_site539] | 8.39 ± 0.34
33 | ATTTTAATGGGACATGCATGGGACAAACTACAAATT [TGCATGCA_site853] | 9.3 ± 0.59
34 | ATAATCCAAAAAAATCAAATAAAATAAAATAAAATA [CACACA_negctrl_site449] | 8.53 ± 0.37
35 | TAAAAATATTTAAACTGTACTATTTTATGTTAAATG [XGTACX_site6620] | 8.3 ± 0.085
36 | TTTTTTCTTTTCTTTTTATTTTATTTTGTTTTATTT [CACACA_negctrl_site799] | 8.48 ± 0.49
37 | AATAAAAACTACATGTGTACATAATAAATACATATA [XGTACX_site755] | 8.76 ± 0.35
38 | TGTTGCAAAACAAAAAAAAAAAAAAAAAATAATAAT [CACACA_negctrl_site1642] | 8.26 ± 0.52
39 | TGAACCAGATTTAGAAGTACTAAATATTACATACAT [XGTACX_site2437] | 8.32 ± 0.3
40 | TTATATTTTATATTTACACACATTTATATTTATAAA [CACACA_site203] | 8.38 ± 0.35
41 | TATATAAATATTCGTAGTACAATACAATTATAAGTA [XGTACX_site3068] | 8.52 ± 0.48
42 | TTTATAATTTTAAAATGTACAAGGAGGAAAAATTCT [XGTACX_site422] | 8.98 ± 0.45
43 | ATTTAATAAAAAAAAAAAATATTGTAGAATATGATG [GTGCAC_negctrl_site195] | 8.26 ± 0.49
44 | AATTTGTAAAATAAGGTGCGTATAAAAAATTATATT [GTGCAC_site9676] | 8.79 ± 0.16

Row | Sequence | gcPBM binding intensity (ln)
45 | ATAAACATCGGTAGTACACACATTCATGTACTTGAT [CACACA_site3037] | 8.6 ± 0.3
46 | ATATACATATTCTTGTGTACATAAAAATTTATATAT [XGTACX_site8726] | 8.46 ± 0.25
47 | CAAATGGTAAATGAAAGTACAAATTGTTTTGATTAA [XGTACX_site1536] | 8.44 ± 0.38
48 | TTTGTTGACAGACACACACACATACATATATATATA [CACACA_site2288] | 9.8 ± 0.24
49 | TATAATAATATAATGGTGCATGTATATAACCATATA | 8.76 ± 0.014
50 | TCTTACGGATTCATTGTGCACATATATATATATATA [GTGCAC_site9896] | 10.2 ± 0.45
51 | TTAATAATTCTTAAAAGTACATAACTTTTTTTTTTT [XGTACX_site751] | 8.04 ± 0.45
52 | GCTCTTTTGTTATGGTGTACCCTCCATGTAACATAA [XGTACX_site91] | 8.92 ± 0.24
53 | AAATAAATATAAATAAATAAATAAATAAATATATAT [CACACA_negctrl_site827] | 8.39 ± 0.24
54 | TTTTAAAAACGGCATGCATGTAATACATGGAAGGAA [TGCATGCA_site480] | 9.8 ± 0.3
55 | TATATATAATTCATACATTTTAAATATATTTATTTA [CACACA_negctrl_site840] | 8.28 ± 0.43
56 | TCTTTTATGCACATTGAGTAAACAACATATTTTTAA [TGCATGCA_negctrl_site561] | 8.86 ± 0.19
57 | TTTAAAAAAATTCATGCACACGAAATAAAAAGCACC [CACACA_site8214] | 9.385 ± 0.035
58 | TTTTTTATTAAAAGTAGTACACATGAAAAAAAAAAA [XGTACX_site5524] | 8.72 ± 0.37
59 | TTAATATAGATATAACCACACACATACATCTAATTC [CACACA_site8519] | 8.65 ± 0.46
60 | ATTTTTATAGAAATATGTACACAATATGTATATATT [XGTACX_site7993] | 8.16 ± 0.28
61 | TAGAAGTACATATATGCATGTTAATTTTAAAGGAGG [TGCATGCA_site538] | 8.73 ± 0.35
62 | ATATATATATAGTGTTGTACATTTAAAAATAATATA [XGTACX_site2627] | 9.87 ± 0.19
63 | ATTAAAAATATTAGTTGTACTTTATATTTTCATATA [XGTACX_site3614] | 8.26 ± 0.35
64 | AATCAAAATAATTTAACACACAATTTTAATACTGTT [CACACA_site2375] | 8.26 ± 0.35
65 | TTTAAGAATTAACGGGGTACAATTCTTAAATATATA [XGTACX_site669] | 8.89 ± 0.42
66 | AAATTCCATGAAAAAAGTACTAATTAATACAATATA [XGTACX_site2877] | 8.59 ± 0.38

Row | Sequence | gcPBM binding intensity (ln)
67 | ATGTGATAGAAGTACACACACATATGTATTTATAAT [CACACA_site5075] | 8.68 ± 0.49
68 | TGTTTTATTTTTTTTGTGCACATACCTTTAGCATCA [GTGCAC_site9812] | 9.05 ± 0.38
69 | TAATTATAATAAATATTCATATGTTCAAATATATAT [CACACA_negctrl_site151] | 8.09 ± 0.35
70 | TATAAAATTATTAAACAAGAAAATTTTAGGTAATAC [TGCATGCA_negctrl_site568] | 8.56 ± 0.36
71 | TTGATAAAACGTTATGCACACGTACGTGGGTATTTA [CACACA_site8445] | 8.79 ± 0.45
72 | ATAATATATTTTTGAACACACAATATATATATATAT [CACACA_site4124] | 9.75 ± 0.27
73 | ATATAAATATGACACACACACAAAAAAAATAAAGAC [CACACA_site6208] | 9.23 ± 0.45
74 | TATAATATATTTTGATGTACAAATATATTATATATA [XGTACX_site8633] | 8.21 ± 0.19
75 | AGTATACACGAACACACACACACATATATAAATATA [CACACA_site6913] | 8.69 ± 0.61
76 | TAAAGTATTACAACCACACACACACCCATATATTAT [CACACA_site4159] | 8.82 ± 0.44
77 | TAAGTGTATGTATATAAACACACATACATATATATA [CACACA_site8397] | 8.46 ± 0.28
78 | TAATTTAAAAATTCCTGTACTCAGTTTTTTCTATTT [XGTACX_site4961] | 8.48 ± 0.39
79 | ATTTTTTTATACAATTTTATATATTAAATATTATAA [GTGCAC_negctrl_site86] | 8.31 ± 0.41
80 | TAAAAATGGGAGGGGTGTACTACACAATAAAATTAT [XGTACX_site5641] | 9.35 ± 0.31
81 | TGTATTTTTAACATATGTACGAATAGCACGTGTTAT [XGTACX_site3640] | 8.89 ± 0.44
82 | ATTTTTTCAAAATGGAAAACTTATCAGTGAAAAAAA [CACACA_negctrl_site1087] | 8.62 ± 0.45
83 | CTTGACCCCCTTTGTTGTACTGACATTTGTGAGCTT [XGTACX_site591] | 9.19 ± 0.39
84 | TATTTTATATGATAGGTGCATTTTTTTTTTTTTTTT [GTGCAC_site9757] | 8.95 ± 0.49
85 | GTGCTACATCATATGTGTACATATACCAAACTGTAT [XGTACX_site8233] | 8.7 ± 0.042
86 | TTAATAATGTTTTATTGTACTTTTTTGTGGGTTTAT [XGTACX_site5670] | 8.72 ± 0.53
87 | ATATGTATTGGAGTGTGTACATATATATATATTTAT [XGTACX_site5633] | 8.64 ± 0.38
88 | ATATACATTCAAGGCTGTACACTATATTTTTTTTTT [XGTACX_site6514] | 8.98 ± 0.54
